From PubChem BioAssay (NCI)
“And” between values parts separate entries of the source, which are not always exact repeats. Equal entries are not always repeated.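 96-well plates; 48 h exposure; 5 concentrations. Endpoints by linear interpolation between flanking doses. Not reached: highest tested concentration assigned. The concentration for 50% growth inhibition is given as GI50. At the TGI there is no net growth.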 Peptide text beside a SMILES is read from it. * marks the point of attachment. Boc = CC(C)(C)OC(=O)*; OSu = O=C1CCC(=O)N1O*

Test system: NCI-H322M lung
Assay: DTP human tumour cell line panel, 48 h

**Q.** What does the source list for `COC(=O)[C@@H](C)C[C@H](Cc1ccccc1)NC(=O)c1csc(CC[C@H](C(C)C)N(C)C(=O)[C@@H](NC(=O)[C@H]2CCCCN2C)C(C)C)n1`?
**A.** GI50: 0.704 µM; TGI: > 33.3 µM

**Q.** How did the GI50 turn out when `C#CCOc1cccc(-c2ncnc3cc(NC(=O)CCl)ccc23)c1` was run?
**A.** Its GI50 is 4.05 µM.

**Q.** What about the TGI of the same compound?
**A.** Its TGI is 8.58 µM.

**Q.** How did the TGI turn out when `COc1ccc(Nc2nc3ccc(C(F)(F)F)cc3nc2-c2ccccc2)cc1OC` was run?
**A.** The TGI was > 100 µM.

**Q.** Which TGI does the source give for `O=CN1CCN(C(=O)c2ccc(Cl)cc2Cl)C1=S` here?
**A.** Its TGI is > 100 µM.

**Q.** `COc1ccc(-n2cnnc2-c2nsc3ccccc23)cc1` was tested. Which TGI did it give?
**A.** Its TGI is > 100 µM.

**Q.** `COC(=O)[C@@H]1[C@@H](c2cccc(Cl)c2)[C@H](C(=O)OC)C2(C[C@@]1(C)O)NCCS2` (stereo partly drawn) was tested. Which TGI did it give?
**A.** Its TGI is > 100 µM.

**Q.** With `COC(=O)C1Cc2c(OC)ccc(OC)c2CC(C(=O)OC)C1=O` (stereo not drawn) as the compound, how does the TGI read?
**A.** Its TGI is > 100 µM.

**Q.** How did the TGI turn out when `COC(=O)NCCc1[nH]nc2c1C(=O)C=C(N1CCOCC1)C2=O` was run?
**A.** Its TGI is > 100 µM.

**Q.** For `C=C(C)C(=O)O[C@H]1C[C@@]23O[C@@H]2CCC(=C[C@H]2OC(=O)C(=C)[C@H]12)COC3O` (stereo partly drawn), which TGI is on record?
**A.** Its TGI is > 100 µM.

**Q.** `Cc1[nH]c2ccccc2c1C(=O)CC1(O)C(=O)Nc2ccccc21` (stereo not drawn) was tested. Which TGI did it give?
**A.** Its TGI is > 100 µM.

**Q.** Which TGI does the source give for `CCCCCC[N+](C)(C)Cc1ccc(C[N+](C)(C)CCCCCC)cc1` here?
**A.** The TGI was 9.25 µM.

**Q.** How did the TGI turn out when `O=C(/N=C/c1c(O)c2ccccc2oc1=O)Nc1ccccc1` was run?
**A.** The TGI was > 100 µM.

**Q.** With `CC(NC(=O)C(NC(=O)OC(C)(C)C)C(C)C)C(=O)NCC(=O)ON1C(=O)CCC1=O` (stereo not drawn) (Boc-Val-Ala-Gly-OSu; configuration not given here) as the compound, how does the TGI read?
**A.** The TGI was > 100 µM.

**Q.** `O=C1c2ccc(O)cc2C(=O)c2ccc(O)cc21` was tested. Which TGI did it give?
**A.** Its TGI is > 100 µM.

**Q.** For `CC(=O)OCCOCn1c2c(c(=S)[nH]c1=O)CCC2`, which TGI is on record?
**A.** Its TGI is > 100 µM.

**Q.** How did the GI50 turn out when `O=c1c(Oc2ccc(F)cc2F)cc2cnc(NC3CCOCC3)nc2n1CCCO` was run?
**A.** The GI50 was > 25 µM.

**Q.** What about the TGI of the same compound?
**A.** The TGI was > 25 µM.

**Q.** For `O=C1Nc2ccccc2C12CCNC2Cc1ccccc1` (stereo not drawn), which TGI is on record?
**A.** The TGI was > 100 µM.

**Q.** How did the TGI turn out when `COC(=O)/C(=C\Nc1cccc(C)n1)S(=O)(=O)c1ccc(C)cc1` was run?
**A.** The TGI was > 100 µM.

**Q.** How did the TGI turn out when `Cc1nc(C)c(C(=O)NNC(N)=S)cc1C(=O)NNC(N)=S` was run?
**A.** Its TGI is > 100 µM.

**Q.** `O=C1NC(SSC2=NNC3(C(=O)N2)c2ccccc2-c2ccccc23)=NNC12c1ccccc1-c1ccccc12` was tested. Which TGI did it give?
**A.** Its TGI is > 10 µM.

**Q.** For `FC(F)(F)c1nc2nc(Cl)c(Cl)nc2n1CCCN1CCOCC1`, which TGI is on record?
**A.** The TGI was 70.4 µM.

**Q.** With `CC(NC(=O)C(C)NC(=O)C(N)CCP(C)(=O)O)C(=O)O` (stereo not drawn) as the compound, how does the TGI read?
**A.** Its TGI is > 100 µM.

**Q.** Which results are given for `CCC[CH2][Sn]([CH2]CCC)([CH2]CCC)[O]c1ccc(Cl)cc1Cl`?
**A.** GI50: 0.0992 µM; TGI: 0.259 µM

**Q.** `Cn1c(=O)c(C(=O)Nc2nc(C34CC5CC(CC(C5)C3)C4)cs2)c(O)c2ccccc21` was tested. Which TGI did it give?
**A.** Its TGI is > 100 µM.

**Q.** `CCCCC(=O)NS(=NC(=O)c1ccccc1)C(Cl)(Cl)Cl` (stereo not drawn) was tested. Which TGI did it give?
**A.** The TGI was > 100 µM.

**Q.** With `Nc1ccccc1C(=O)CC1OC(=O)c2ccccc21` (stereo not drawn) as the compound, how does the TGI read?
**A.** The TGI was > 100 µM.

**Q.** Which GI50 does the source give for `FC(F)c1nc2ccccc2n1-c1nc(N2CCOCC2)nc(N2CCOCC2)n1` here?
**A.** Its GI50 is 0.341 µM and 0.345 µM.

**Q.** What about the TGI of the same compound?
**A.** Its TGI is 3.4 µM and 3.56 µM.

**Q.** With `CC(O)c1cc2c(s1)C(=O)c1sccc1C2=O` (stereo not drawn) as the compound, how does the TGI read?
**A.** The TGI was 0.358 µM.

**Q.** For `N[C@H](C(=O)O)[C@H]1ON=C(Cl)[C@@H]1O`, which GI50 is on record?
**A.** Its GI50 is 1.86 µM.

**Q.** What about the TGI of the same compound?
**A.** Its TGI is > 550 µM.

**Q.** For `Nn1c(COc2cccc(OCc3n[nH]c(=S)n3N)c2)n[nH]c1=S`, which TGI is on record?
**A.** Its TGI is > 100 µM.

**Q.** `C=C1C(=O)O[C@@H]2C[C@@H](C)[C@@H]3C=CC(=O)[C@@]3(C)[C@@H](OC(=O)CC(=O)O[C@H]3[C@@H]4C(=C)C(=O)O[C@@H]4C[C@@H](C)[C@@H]4C=CC(=O)[C@]43C)[C@H]12` was tested. Which TGI did it give?
**A.** Its TGI is 0.74 µM.

**Q.** How did the TGI turn out when `NC(CCCC(N)P(=O)(O)c1ccccc1)P(=O)(O)c1ccccc1` (stereo not drawn) was run?
**A.** The TGI was > 261 µM.

**Q.** `C#Cc1cccc(N2C(=O)CCC2=O)c1` was tested. Which TGI did it give?
**A.** The TGI was 56 µM.

**Q.** How did the TGI turn out when `CN(CCn1cnc2c1c(=O)n(C)c(=O)n2C)C1CCCCC1` was run?
**A.** Its TGI is > 100 µM.

**Q.** Which TGI does the source give for `O=C1c2ccccc2C(Br)(Br)c2ccccc21` here?
**A.** Its TGI is > 100 µM.

**Q.** With `O=S(=O)(CCBr)CCBr` as the compound, how does the TGI read?
**A.** Its TGI is 31.7 µM.

**Q.** How did the TGI turn out when `O=C(c1ccccc1)N1CCN(C(=S)N(C(=O)c2ccccc2)c2ccccc2)C1=S` was run?
**A.** Its TGI is 27.2 µM.

**Q.** With `Cc1ccc(S(=O)(=O)N/N=C(\c2nc3ccc(Cl)cc3[nH]c2=O)C(O)c2cccc([N+](=O)[O-])c2)cc1` (stereo not drawn) as the compound, how does the TGI read?
**A.** The TGI was > 100 µM.

**Q.** What does the source list for `CO[C@H]1/C=C/O[C@@]2(C)Oc3c(C)c(O)c4c(c3C2=O)C(=O)C(/C=N/N(c2ccccc2)c2ccccc2)=C(NC(=O)/C(C)=C\C=C\[C@H](C)[C@H](O)[C@@H](C)[C@@H](O)[C@@H](C)[C@H](OC(C)=O)[C@@H]1C)C4=O`?
**A.** GI50: 1.88 µM; TGI: 3.77 µM

**Q.** `CCCCCCCCOC1C(O)C(O)C(O)C(O)C12CO2` (stereo not drawn) was tested. Which TGI did it give?
**A.** Its TGI is > 100 µM.

**Q.** With `COc1ccc2nc3ccc(OC)cc3c(SCCO)c2c1` as the compound, how does the TGI read?
**A.** The TGI was > 100 µM.

**Q.** With `Nc1nc(Cl)c(N)c(NCC2(CO)CC(OCc3ccccc3)C2)n1` (stereo not drawn) as the compound, how does the TGI read?
**A.** The TGI was > 100 µM.

**Q.** For `COCCCNC(=O)C1C(=O)N(CCCOC)C(=O)/C1=N\N` (stereo not drawn), which TGI is on record?
**A.** The TGI was > 100 µM.

**Q.** `C[C@]12CC[C@H]3[C@@H](CC=C4C[C@@H](N5CCCC5)CC[C@@]43C)[C@@H]1C[C@H](N1CCOCC1)[C@@H]2O` was tested. Which TGI did it give?
**A.** Its TGI is > 100 µM.

**Q.** With `Cc1nn(-c2nc3ccccc3[nH]2)c(N)c1-c1ccc(Cl)cc1` as the compound, how does the GI50 read?
**A.** The GI50 was 4.23 µM.

**Q.** What about the TGI of the same compound?
**A.** The TGI was > 100 µM.

**Q.** With `CCOC(=O)c1ccc(Nc2c3c(nc4ccccc24)CCCC3)cc1` as the compound, how does the TGI read?
**A.** The TGI was > 100 µM.

**Q.** Which GI50 does the source give for `Clc1nc(Cl)c2ncn(Cc3cccc(Cn4cnc5c(Cl)nc(Cl)nc54)c3)c2n1` here?
**A.** The GI50 was 14.1 µM.

**Q.** What about the TGI of the same compound?
**A.** The TGI was 27.3 µM.

**Q.** What does the source list for `COC(=O)CCc1c[nH]c2ccc(N(CCCl)CCCl)cc12`?
**A.** GI50: 21.2 µM; TGI: > 68.2 µM
